From the supplement of paper PMC8277577
Recombinant human monoclonal antibodies (heavy:light variable regions). ELISA EC50 on the named antigen, from 10 µg/ml down; lower = stronger. No active / inactive call.

Target: SARS-CoV-2 Wuhan-Hu-1 spike receptor-binding domain
Experiment: ELISA binding EC50; higher = weaker binding; ELISA of recombinant human antibody on coated antigen, from 10 µg/ml in fourfold dilutions; four-parameter fit.

B1: C977 (protein)
chain 1: EVQLVESGGGLVQPGGSLRLSCAASGFTFSNYDMHWVRQVTGKGLEWVSLIGTAADAYYADSVKGRFTISRENAKNSLYLQINSLRAGDTAVYFCARGDSSGLYTFFDYWGQGTLVTVSS
chain 2: DIQMTQSPSSLSASVGDRVTITCRASQSVTRYLNWYQLKPGKAPKLLIYAASSLQSGVPSRFSGSGSGTDFTLTISSLQPEDFATYYCQQSYSTLGLTFGGGTKVEI
With B1 the “ELISA binding EC50” value was 2.13 ng/mL.

B2: C978 (protein)
chain 1: QVQLVQSGAEVKKPGSSVKVSCKASGATFSNYIISWVRQAPGQGLEWMGRTIPLLDIANYAQKFQGRVTITADKSTRIVYMHLGSLTSEDTAVYYCATGKGYSSSSAAYYFDHWGQGTLVTVSS
chain 2: QSVLTQPPSVSGAPGQRVTISCTGTNSNIGAGYDIHWYQQLPGTAPKLLIYGSNNRPSGVPDRFSGSKSGTSASLAITGLQAEDEADYYCQSYDSSLSGSEVFGGGTKLTVL
B2 was tested, and the “ELISA binding EC50” value was 2.09 ng/mL.

B3: C979 (protein)
chain 1: QVQLVESGGGVVQPGRSLRLSCVASGFTFSNYGMHWVRQAPGKGLEWVAVILYDGSDKYYLDSVKGRFTISRDNSKNTLFLQLNSLRAEDTAVYYCAKEGNGYGYQYAGMDVWGQGTTVTVS
chain 2: QSALTQPASVSGSPGQSITISCTGTNSDVGGYDYVSWYQQHPGKAPKLIIFEVINRPSGVSNRFSGSKSGNTASLTISGLRAEDEADYYCCSYTTSTTRVFGGGTKLTVL
In the case of B3, the “ELISA binding EC50” value is reported as 2.54 ng/mL.

B4: C980 (protein)
chain 1: QVQLVQSGAEVKKPGSSVKVSCEASGGTFSSDSINWVRQAPGQGLEWMGRIIPIFGATNYAQKFQGRVTITADKSTDTVYMEVSSLTSEDTAVYYCARGGIAVGGWWFDPWGQGTLVTVSS
chain 2: EIVMTQSPATLSVSPGERATLSCRASESVSSKLAWYQQKPGQAPRLLIYGASTRATGISARFSGSGSGTDFTLTISSLESEDFAVYYCQQYNHWPPNTFGQGTKLEIK
In the case of B4, the “ELISA binding EC50” value is reported as 4.07 ng/mL.

B5: C981 (protein)
chain 1: EVQLVESGGGLVQPGGSLRLSCAASGFTFSNYDMHWVRQVTGNGLEWVAAIGTSGDTYYPDSVKGRFTISRENVKNSLFLQMNSLRAGDTAVYYCARGGSSSWLWYFDLWGRGTLV
chain 2: DIQMTQSPSSLSASVGDRVTITCRASQSISSHLNWYQQKPGKVPKLLIYAASTLQSGVPSRFSGSGSGTDFTLTISSLQPEDFATYYCQQSYSMPPVTFGQGTRLEIK
In the case of B5, the “ELISA binding EC50” value is reported as 2.12 ng/mL.

B6: C842 (protein)
chain 1: QVQLVESGGGVVQPGRSLRLSCAASGFTFSTYAIHWVRQAPGKGLEWVAAISYDGSNKYYSDSVKGRLFISRDNSNNTVYLQMNNLRAEDTAIYYCARDGTIVTLVRGVMGPPFDYWGQGTLVTVSS
chain 2: not shown
In the case of B6, the “ELISA binding EC50” value is reported as 3.01 ng/mL.
